Residues, ends and D or L forms follow the SMILES beside them. No end group written: not given here.
system: human red blood cells; conditions: red cells of human, 1 h

| Compound | HC50 (hemolysis) [µM] |
| --- | --- |
| MGWWFPPKTGNGAGKAFKKAAAAKWGGLFLKAAWFANKGEWGGGFPKGY-NH2 [AMP #9] | > 250 |
| MYLKKFLALKNSLKKLSPFKCAVKSWLKKCAEVTFYSKLLGRRGKKDGN-NH2 (cysteines drawn unpaired) [AMP #6] | 73.8 |
| MNNRGPLGRRFKARRKWKKFVAGKMKKKRKRFKGFKKKGGFTPFVKKFV-NH2 [AMP #3] | > 250 |
| CC[C@H](C)[C@H](NC(=O)[C@H](CO)NC(=O)[C@H](CO)NC(=O)[C@H](CO)NC(=O)[C@H](CCCNC(=N)N)NC(=O)[C@@H](NC(=O)[C@H](CO)NC(=O)[C@@H](N)CCSC)[C@@H](C)O)C(=O)N[C@@H](CCCNC(=N)N)C(=O)N[C@@H](CCCNC(=N)N)C(=O)N[C@@H](CC(C)C)C(=O)N[C@H](C(=O)N[C@@H](CCC(=O)O)C(=O)N[C@@H](C)C(=O)N[C@H](C(=O)N[C@@H](CCCNC(=N)N)C(=O)N[C@H](C(=O)N[C@@H](CCCNC(=N)N)C(=O)N[C@@H](Cc1ccccc1)C(=O)N[C@@H](CCCNC(=N)N)C(=O)N[C@@H](C)C(=O)N[C@@H](C)C(=O)N[C@@H](CC(C)C)C(=O)N[C@@H](CCCNC(=N)N)C(=O)N[C@H](C(=O)N[C@H](C(=O)N[C@@H](CC(C)C)C(=O)N[C@@H](Cc1ccccc1)C(=O)N[C@@H](Cc1ccccc1)C(=O)N[C@@H](C)C(=O)N[C@@H](CC(C)C)C(=O)N[C@@H](CCCNC(=N)N)C(=O)N[C@H](C(=O)N[C@H](C(=O)N[C@@H](CCCCN)C(=O)N[C@@H](CCCNC(=N)N)C(=O)N[C@@H](CCCNC(=N)N)C(=O)N1CCC[C@H]1C(=O)N[C@@H](CCCNC(=N)N)C(=O)N[C@@H](CCCNC(=N)N)C(N)=O)[C@@H](C)O)[C@@H](C)O)C(C)C)[C@@H](C)O)[C@@H](C)O)C(C)C)C(C)C [AMP #23] (H-MSTRSSSIRRLVEAVRTRFRAALRTVLFFALRTTKRRPRR-NH2) | 11.5 |
| H-MCFCFKAGPKICRGLQRKKKKFKYQTSFTKTGFGFLTKPKSPAR-NH2 (cysteines drawn unpaired) [AMP #10] | > 250 |
| H-MCFCRYRFFYRRRIRFFKWGPYFYVWFGFPFGRKAFFLSVFRRRFC-NH2 (cysteines drawn unpaired) [AMP #19] | > 250 |
| MKLRRRLRTRMVALLVLGVLFLLMLFFIIFLRRMLMRRFRA-NH2 [AMP #26] | > 250 |
| MKQPSKTKTHFKYFLLFLKSVKKVAGFKKKKKKYHWRSYKEGSCFRKRT-NH2 [AMP #13] | > 250 |
| CC[C@H](C)[C@H](NC(=O)[C@H](CCCNC(=N)N)NC(=O)[C@H](CCCNC(=N)N)NC(=O)[C@@H](NC(=O)[C@H](C)NC(=O)[C@H](CCC(=O)O)NC(=O)[C@H](CCCCN)NC(=O)[C@H](CCCNC(=N)N)NC(=O)[C@H](CO)NC(=O)[C@H](CCCNC(=N)N)NC(=O)[C@H](CC(C)C)NC(=O)[C@@H](NC(=O)[C@H](CC(N)=O)NC(=O)[C@H](CCCNC(=N)N)NC(=O)[C@@H](NC(=O)[C@H](CCCCN)NC(=O)[C@H](CCSC)NC(=O)[C@@H](N)CCSC)[C@@H](C)CC)[C@@H](C)O)C(C)C)C(=O)N[C@@H](Cc1ccccc1)C(=O)N[C@@H](CO)C(=O)N[C@@H](CC(C)C)C(=O)N[C@@H](CCCNC(=N)N)C(=O)N[C@@H](CCCNC(=N)N)C(=O)N[C@@H](CCCNC(=N)N)C(=O)N[C@@H](CO)C(=O)N[C@H](C(=O)N[C@@H](Cc1ccccc1)C(=O)N[C@H](C(=O)N[C@@H](CCC(=O)O)C(=O)N[C@@H](CCSC)C(=O)N[C@@H](C)C(=O)N[C@@H](CCCNC(=N)N)C(=O)N[C@@H](C)C(=O)N[C@@H](Cc1ccccc1)C(=O)N[C@@H](CCCNC(=N)N)C(=O)N[C@@H](CCCNC(=N)N)C(=O)N[C@@H](Cc1ccccc1)C(=O)N[C@@H](CCCCN)C(=O)N[C@@H](C)C(=O)N[C@@H](CCCNC(=N)N)C(N)=O)[C@@H](C)O)C(C)C [AMP #28] (H-MMKIRNTLRSRKEAVRRIFSLRRRSVFTEMARAFRRFKAR-NH2) | > 250 |
| MLFGSRAKKYGKEAKQEKSFQYPKSSFVACKKKWKRSKHFFKTFKKKVS-NH2 [AMP #1] | > 250 |
| CC[C@H](C)[C@H](NC(=O)CNC(=O)[C@@H](N)CCSC)C(=O)NCC(=O)N[C@@H](CCCCN)C(=O)N[C@@H](Cc1ccccc1)C(=O)N[C@@H](CCC(N)=O)C(=O)N[C@@H](CCCCN)C(=O)N[C@@H](CCSC)C(=O)N[C@@H](CCCNC(=N)N)C(=O)N[C@@H](Cc1ccccc1)C(=O)N[C@H](C(=O)NCC(=O)N[C@@H](C)C(=O)N[C@H](C(=O)N[C@@H](CCCNC(=N)N)C(=O)N[C@@H](C)C(=O)N[C@@H](CO)C(=O)N[C@@H](CCCCN)C(=O)NCC(=O)N[C@H](C(=O)N[C@@H](C)C(=O)N[C@@H](CCCCN)C(=O)NCC(=O)N[C@@H](CC(C)C)C(=O)N[C@@H](CC(C)C)C(=O)N[C@@H](CCCNC(=N)N)C(=O)N[C@H](C(=O)N[C@@H](C)C(=O)N[C@@H](C)C(=O)N[C@H](C(=O)N[C@@H](CCCNC(=N)N)C(=O)N[C@H](C(=O)NCC(=O)N[C@@H](CCCNC(=N)N)C(=O)N[C@@H](CCCNC(=N)N)C(=O)N[C@@H](C)C(=O)N[C@@H](CC(C)C)C(=O)N[C@H](C(=O)N[C@H](C(N)=O)[C@@H](C)O)[C@@H](C)O)[C@@H](C)O)[C@@H](C)CC)[C@@H](C)CC)C(C)C)[C@@H](C)CC)[C@@H](C)CC [AMP #21] (H-MGIGKFQKMRFIGAIRASKGVAKGLLRIAAIRTGRRALTT-NH2) | > 250 |
| MEAFKKKPRLPLFKVKLTRFLERARGLGSYRIFEFFKKFGVKKFVSSLR-NH2 [AMP #15] | 24.8 |
| MNTTSNMIHRAVQQKRISFRAAKLTVLFLFKRRLLRRLLRHHEN-NH2 [AMP #27] | 105.1 |
| MAIRIIGRLARVRARVVARVRSRLLADDPPEDLLRVARRRKGRRWLFLS-NH2 [AMP #24] | > 250 |
| MRRKTPVKWKTFFKALKHKKKIFKKTFEKFKFLAKGPAFLKGFDQKLKS-NH2 [AMP #5] | 82.9 |
| H-MCFFPRRKSKVKVKGGLCRLLFIFFKTTFCFKAKTKKEIKKGTGKKIVR-NH2 (cysteines drawn unpaired) [AMP #18] | 4.7 |
| MWIKWKKPRKWGRRLKKKEKEELGDYIYLYCKVYRLFGFLPYFISKKTA-NH2 [AMP #17] | > 250 |
| MRNFFKKTRLKYKGKKELIKKSRAFGLKTKKRSGFFFPRALKYEEEFY-NH2 [AMP #7] | > 250 |
| MKAKKWFESLFKTFFKKGKGIYPKSSFEKEKKTDKKKKFGGWVWFKK-NH2 [AMP #16] | 180.2 |
| MKKKKKGILKQNNKKKKYTLFNRMVVFLFLGFIMIIFVQKYKKVIYHK-NH2 [AMP #29] | 50.6 |

Source: publication PMC10632401, “Cell-free biosynthesis combined with deep learning accelerates de novo-development of antimicrobial peptides” (Nature Communications, 2023)
